Laboratory results taken from PubChem BioAssay (NCATS).
The inconclusive results got no clear call from the source; some entries with a clear call stand among them for comparison. For some assays here: Where the call is inconclusive, the potency comes from a doubtful curve fit. More than one record can exist for a structure, and the calls need not agree. Calls of active or inactive are those of the source. Unless noted, the call rests on the fitted dose curve; in most records, active means well fitted curve in the direction sought with a large enough effect; inconclusive means small, poorly fitted or top-dose-only effect, or another doubt; inactive means no such curve, though single readings can be large; an effect the other way counts as inactive or inconclusive.

Columns and labels:
[1] = qHTS of pediatric cancer cell lines to identify multiple opportunities for drug repurposing: Primary screen for SJ-GBM2 cells (AID 1347091);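 further: plate controls were DMSO neutral control for no effect and bortezomib for full effect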
How it was run: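 Viability measured as metabolically active cells via CellTiter-Glo luminescence following 48 hours of compound exposure, 11-point dilutions in confirmatory testing. 500-1,000 cells/well plated 5 hours before dosing; controls were DMSO and 2.3 µM bortezomib.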

[2] = qHTS of pediatric cancer cell lines to identify multiple opportunities for drug repurposing: Primary screen for BT-37 cells (AID 1347094);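 further: plate controls were DMSO for no effect and bortezomib for full effect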
How it was run: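 500-1,000 cells/well; 5 h pre-incubation 37 °C/5% CO2; compound pinned; 48 h; CellTiter-Glo, 15 min RT; luminescence. MIPE 11-pt from 0.78 nM, NPC 8-pt from 0.59 nM final. Bortezomib 2.3 µM final as positive control.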

[3] = qHTS to identify inhibitors of the type 1 interferon - major histocompatibility complex class I in skeletal muscle: primary screen against the NCATS Mechanism Interrogation Plate v5.0 (MIPE) Libary (AID 1347411); conditions: iHSKM cells + IFN-b, HiBiT-tagged MHC-I luminescence, 24 h; activity change, negative = inhibition: at 45.8 µM (top of the series); further: potency means the concentration at half of the fitted maximal effect; nearly all actives have a fitted effect of over 65% in size
How it was run: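 IFN-beta-driven (4 ng/ml) HLA-B-HiBit expression in CRISPR-tagged C25cl48 myoblasts; compounds 11-pt, 1:3, max 46 uM, 24 hr exposure; lytic NanoLuc complementation luminescence.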

[4] = Counterscreen qHTS for small molecule stabilizers of the endoplasmic reticulum resident proteome: GLuc-NoTag assay (AID 1508627); further: potency means the concentration at half of the fitted maximal effect
How it was run: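 Counterscreen line: SH-SY5Y-GLuc-NoTag. Seed, 5 h; compound, 19 h; thapsigargin 100 nM, 4 h; 37C/5% CO2. Readout: secreted GLuc luminescence, coelenterazine 0.07x final, no lysis.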

[5] = Cell Viability qHTS for small molecule stabilizers of the endoplasmic reticulum resident proteome (AID 1508629); conditions: cell viability counter-screen, 100 nM thapsigargin for final 4 h;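 further: human SH-SY5Y neuroblastoma cells carrying the GLuc-SERCaMP reporter; compound exposure about 46 h in total before the viability read; on the % scale 0 is the no-effect control and ±100 the full control effect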
[6] = Primary qHTS for small molecule stabilizers of the endoplasmic reticulum resident proteome: Secreted ER Calcium Modulated Protein (SERCaMP) assay (AID 1508630); conditions: SH-SY5Y GLuc-SERCaMP (Gaussia luciferase released on ER calcium loss) secretion, thapsigargin, luminescence; activity change, negative = inhibition: at 38.4 µM (top of the series) unless noted; further: potency means the concentration at half of the fitted maximal effect
How it was run: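 The SH-SY5Y reporter protocol was run at 3 concentrations up to 38.3 uM (primary) or 11 concentrations (follow-up): 16 h compound, 100 nM thapsigargin for 4 h, then extracellular luciferase luminescence.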

[7] = A High-Content qHTS Against Drug Library for the Identification of Small Molecules that Inhibit DYT1 Early Onset Primary Dystonia-Associated Cell Pathology (AID 1645839; calls by dose curve)
How it was run: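 Cells were seeded and left for 24 h, then dosed with compound alongside tetracycline induction of mutant EGFP-TorsinA. They were incubated for 48 h, fixed in 4% paraformaldehyde, permeabilized and imaged for mislocalization (%pathology) and cell count.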

[8] = Primary qHTS for inhibitors of nuclear receptor binding SET domain protein 2 (NSD2) in an isogenic RCH-ACV NSD2 p.E1099K mutant (9B) (AID 1645876); further: on the % scale 0 is the no-effect control and ±100 the full control effect; nearly all actives have a fitted effect of over 70% in size
[9] = Primary qHTS for inhibitors of nuclear receptor binding SET domain protein 2 (NSD2) in an RCH-ACV wild type WT cells (2C) (AID 1645877); conditions: activity change, negative = cell killing: at 44.9 µM (top of the series) unless noted; further: on the % scale 0 is the no-effect control and ±100 the full control effect; nearly all actives have a fitted effect of over 70% in size
[10] = Quantitative High-Throughput drug screen in 47 multiple myeloma cell lines against the NCATS MIPE library collection: FR4_PLB cell viability assay (AID 1918924; further: potency means the concentration at half of the fitted maximal effect; nearly all actives have a fitted effect of over 35% in size)
How it was run: (§1)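 Steps: seed 500 cells per well; pin-transfer MIPE 4.0 library; incubate 48 h at 37C, 5% CO2, humidified; add CellTiter-Glo, 5 min room temperature; read luminescence.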

[11] = Quantitative High-Throughput drug screen in 47 multiple myeloma cell lines against the NCATS MIPE library collection: AMO1_DSMZ cell viability assay (AID 1918927; further: potency means the concentration at half of the fitted maximal effect; nearly all actives have a fitted effect of over 30% in size); conditions: AMO1 myeloma cells viability, CellTiter-Glo ATP luminescence, 48 h; viability, % of DMSO: at 45.8 µM (top of the series)
How it was run: (§2)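 CellTiter-Glo luminescence (ATP) after 48 h compound exposure, 37C/5% CO2; 500 cells/well; MIPE 4.0 approved/investigational drugs pinned in; DMSO = 100%, media only = 0% viability.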

[12] = Quantitative High-Throughput drug screen in 47 multiple myeloma cell lines against the NCATS MIPE library collection: ARD_JJKsccE7 cell viability assay (AID 1918929; further: potency means the concentration at half of the fitted maximal effect); conditions: ARD myeloma cell line viability, CellTiter-Glo, 48 h; viability: at 45.8 µM (top of the series)
How it was run: as §2

[13] = Quantitative High-Throughput drug screen in 47 multiple myeloma cell lines against the NCATS MIPE library collection: Karpas417_ECACC cell viability assay (AID 1918961); conditions: Karpas417 myeloma viability, CellTiter-Glo ATP luminescence, 48 h; viability (% of DMSO): at 45.8 µM (top of the series); further: potency means the concentration at half of the fitted maximal effect
How it was run: as §2

[14] = Quantitative High-Throughput drug screen in 47 multiple myeloma cell lines against the NCATS MIPE library collection: KHM11_PLB cell viability assay (AID 1918962); conditions: KHM11 myeloma cell viability, CellTiter-Glo ATP luminescence, 48 h; viability, % of DMSO control: at 45.8 µM (top of the series); further: potency means the concentration at half of the fitted maximal effect; nearly all actives have a fitted effect of over 35% in size
How it was run: as §1

[15] = Quantitative High-Throughput drug screen in 47 multiple myeloma cell lines against the NCATS MIPE library collection: JIM1_ECACC cell viability assay (AID 1918964; further: potency means the concentration at half of the fitted maximal effect)
How it was run: as §2

[16] = Quantitative High-Throughput drug screen in 47 multiple myeloma cell lines against the NCATS MIPE library collection: INA6_PLB cell viability assay (AID 1918965; further: potency means the concentration at half of the fitted maximal effect; nearly all actives have a fitted effect of over 55% in size); conditions: INA6 myeloma viability, CellTiter-Glo ATP luminescence, 48 h; viability (% of control): at 45.8 µM (top of the series)
How it was run: as §2

[17] = Quantitative High-Throughput drug screen in 47 multiple myeloma cell lines against the NCATS MIPE library collection: H1112_PLB cell viability assay (AID 1918967; further: nearly all actives have a fitted effect of over 30% in size)
How it was run: as §2

[18] = Quantitative High-Throughput drug screen in 47 multiple myeloma cell lines against the NCATS MIPE library collection: KMS27_JCRB cell viability assay (AID 1918970); conditions: KMS27 myeloma cells, CellTiter-Glo ATP viability, 48 h; viability (% of DMSO): at 45.8 µM (top of the series); further: potency means the concentration at half of the fitted maximal effect; nearly all actives have a fitted effect of over 30% in size
How it was run: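 Each line is seeded at 500 cells per well and treated with library compounds for 48 hours under 37 °C, 5% CO2. CellTiter-Glo is then added for 5 min at room temperature before median relative luminescence is recorded.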

[19] = Quantitative High-Throughput drug screen in 47 multiple myeloma cell lines against the NCATS MIPE library collection: KMS12PE_JCRB cell viability assay (AID 1918972); further: potency means the concentration at half of the fitted maximal effect; nearly all actives have a fitted effect of over 30% in size
How it was run: as §2

[20] = Quantitative High-Throughput drug screen in 47 multiple myeloma cell lines against the NCATS MIPE library collection: KMS20_JCRB cell viability assay (AID 1918973); conditions: CellTiter-Glo ATP, 48 h; viability (% of DMSO): at 45.8 µM (top of the series); further: potency means the concentration at half of the fitted maximal effect; nearly all actives have a fitted effect of over 45% in size
How it was run: as §2

[21] = Quantitative High-Throughput drug screen in 47 multiple myeloma cell lines against the NCATS MIPE library collection: KMS21BM_JCRB cell viability assay (AID 1918974); conditions: ATP luminescence, 48 h; viability: at 45.8 µM (top of the series); further: potency means the concentration at half of the fitted maximal effect
How it was run: as §2

[22] = Quantitative High-Throughput drug screen in 47 multiple myeloma cell lines against the NCATS MIPE library collection: MMM1_PLB cell viability assay (AID 1918976); further: potency means the concentration at half of the fitted maximal effect; nearly all actives have a fitted effect of over 35% in size
How it was run: (§3)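 500 cells/well; MIPE 4.0 drugs pin-transferred; 48 h, 37C, 5% CO2. CellTiter-Glo, 5 min RT, luminescence. Controls: DMSO 100%, media 0%.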

[23] = Quantitative High-Throughput drug screen in 47 multiple myeloma cell lines against the NCATS MIPE library collection: MOLP8_DSMZ cell viability assay (AID 1918977); further: potency means the concentration at half of the fitted maximal effect; nearly all actives have a fitted effect of over 45% in size
How it was run: as §3

[24] = Quantitative High-Throughput drug screen in 47 multiple myeloma cell lines against the NCATS MIPE library collection: NCIH929_DSMZ cell viability assay (AID 1918978); conditions: NCI-H929 myeloma viability, CellTiter-Glo ATP, 48 h; viability, % of control: at 45.8 µM (top of the series); further: potency means the concentration at half of the fitted maximal effect; nearly all actives have a fitted effect of over 35% in size
How it was run: as §3

[25] = Quantitative High-Throughput drug screen in 47 multiple myeloma cell lines against the NCATS MIPE library collection: OCIMY1_PLB cell viability assay (AID 1918979); further: nearly all actives have a fitted effect of over 35% in size
How it was run: as §3

[26] = Quantitative High-Throughput drug screen in 47 multiple myeloma cell lines against the NCATS MIPE library collection: MM1S_ATCC cell viability assay (AID 1918980); further: potency means the concentration at half of the fitted maximal effect; nearly all actives have a fitted effect of over 45% in size
How it was run: as §3

[27] = Quantitative High-Throughput drug screen in 47 multiple myeloma cell lines against the NCATS MIPE library collection: L363_DSMZ cell viability assay (AID 1918984); conditions: L363 myeloma viability, CellTiter-Glo ATP luminescence, 48 h; viability (% of control): at 45.8 µM (top of the series); further: potency means the concentration at half of the fitted maximal effect; nearly all actives have a fitted effect of over 40% in size
How it was run: as §3

[28] = Quantitative High-Throughput drug screen in 47 multiple myeloma cell lines against the NCATS MIPE library collection: SKMM1_PLB cell viability assay (AID 1919863); conditions: SKMM1 myeloma viability, CellTiter-Glo ATP, 48 h; viability: stronger effect = lower value
How it was run: as §3

[29] = Quantitative High-Throughput drug screen in 47 multiple myeloma cell lines against the NCATS MIPE library collection: U266_ATCC cell viability assay (AID 1919864)
How it was run: as §3

[30] = Quantitative High-Throughput drug screen in 47 multiple myeloma cell lines against the NCATS MIPE library collection: XG6_PLB cell viability assay (AID 1919865); conditions: XG6 myeloma viability, CellTiter-Glo ATP luminescence, 48 h; viability (% of control): at 45.8 µM (top of the series); further: potency means the concentration at half of the fitted maximal effect; nearly all actives have a fitted effect of over 40% in size
How it was run: as §3

[31] = Quantitative High-Throughput drug screen in 47 multiple myeloma cell lines against the NCATS MIPE library collection: VP6_DJ cell viability assay (AID 1919867); further: potency means the concentration at half of the fitted maximal effect; nearly all actives have a fitted effect of over 40% in size
How it was run: as §3

[32] = Quantitative High-Throughput drug screen in 47 multiple myeloma cell lines against the NCATS MIPE library collection: UTMC2_PLB cell viability assay (AID 1919868); conditions: CellTiter-Glo ATP luminescence, 48 h; viability (% of DMSO control): at 45.8 µM (top of the series); further: potency means the concentration at half of the fitted maximal effect; nearly all actives have a fitted effect of over 55% in size
How it was run: as §3

[33] = Quantitative High-Throughput drug screen in 47 multiple myeloma cell lines against the NCATS MIPE library collection: PCM6_Riken cell viability assay (AID 1919870)
How it was run: as §3

[34] = Quantitative High-Throughput drug screen in 47 multiple myeloma cell lines against the NCATS MIPE library collection: RPMI8226_ATCC cell viability assay (AID 1919871)
How it was run: as §3

[35] = Quantitative High-Throughput drug screen in 47 multiple myeloma cell lines against the NCATS MIPE library collection: OPM2_DSMZ cell viability assay (AID 1919872)
How it was run: as §2

[36] = Quantitative High-Throughput drug screen in 47 multiple myeloma cell lines against the NCATS MIPE library collection: KMS11_JCRBsus cell viability assay (AID 1919873); further: potency means the concentration at half of the fitted maximal effect; nearly all actives have a fitted effect of over 50% in size
How it was run: as §3

HEK293 = assay: Cytotoxic Profiling of Annotated Libraries Using Quantitative High-Throughput Screening (AID 1296008); conditions: Five cell lines viability, CellTiter-Glo ATP luminescence, 48-72 h; max response: stronger effect = lower value; further: potency means the concentration at half of the fitted maximal effect; nearly all actives have a fitted effect of over 60% in size
How it was run: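 Cells exposed to compounds for 48 or 72 hr at 37 degrees Celsius. Viability read as ATP-coupled luminescence with CellTiter-Glo after 10 min at room temperature.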

Es-2 = assay: Primary qHTS to identify gynecologic anti-cancer compounds using libraries of approved drugs and bioactive compounds (AID 1345084); conditions: Gynecologic cancer cell panel viability, ATPlite luminescence, 48 h; series mostly up to 57.5 µM; further: potency means the concentration at half of the fitted maximal effect; nearly all actives have a fitted effect of over 55% in size
How it was run: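 Measured: luminescence after ATPlite addition (15 min, RT). Exposure: 48 h, 37 C, 5% CO2.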
Tags describe the fitted curve by direction and shape.

CO[C@@H]1[C@@H](OC(N)=O)[C@@H](O)[C@H](Oc2ccc3c(O)c(NC(=O)c4ccc(O)c(CC=C(C)C)c4)c(=O)oc3c2C)OC1(C)C
active: Potency [6] 31.6 µM | Potency [14] 2.64 µM | Potency [30] 6.62 µM
inconclusive: Potency [3] 20.8 µM [inhibitor, partial curve, poor fit] | Potency [4] 3.98 µM [inhibitor, full curve, poor fit] | Potency [10] 8.33 µM [cytotoxic, single point] | Potency [11] 11.8 µM [cytotoxic, single point] | Potency [12] 11.8 µM [cytotoxic, single point] | Potency [13] 4.69 µM [cytotoxic, partial curve, poor fit] | Potency [15] 9.35 µM [cytotoxic, partial curve, poor fit] | Potency [16] 6.62 µM [cytotoxic, partial curve, poor fit] | Potency [18] 18.7 µM [cytotoxic, single point] | Potency [19] 11.8 µM [cytotoxic, single point] | Potency [20] 2.64 µM [cytotoxic, full curve, poor fit] | Potency [21] 23.5 µM [rising, partial curve, poor fit] | Potency [22] 11.8 µM [cytotoxic, partial curve, poor fit] | Potency [23] 1.48 µM [cytotoxic, full curve, poor fit] | Potency [24] 9.35 µM [cytotoxic, single point] | Potency [26] 11.8 µM [cytotoxic, single point] | Potency [27] 10.5 µM [cytotoxic, single point] | Potency [28] 1.48 µM [cytotoxic, full curve, poor fit] | Potency [29] 9.35 µM [cytotoxic, single point] | Potency [31] 5.26 µM [cytotoxic, partial curve, poor fit] | Potency [32] 5.26 µM [cytotoxic, partial curve, poor fit] | Potency [33] 4.69 µM [cytotoxic, partial curve, poor fit] | Potency [34] 6.62 µM [cytotoxic, full curve, poor fit] | Potency [35] 4.69 µM [cytotoxic, partial curve, poor fit] | Potency [36] 7.43 µM [cytotoxic, partial curve, poor fit] | Potency (HEK293) 29.6 µM [inhibitor, single point] | Potency (Es-2) 31.6 µM [rising, partial curve, poor fit]
inactive: Potency [1] | Potency [2] | max response [5] 49.1% | Potency [7] | Potency [8] | Potency [9] | Potency [17] | Potency [25]
